# Where “and” joins values, the source holds several entries; their conditions need not be identical. Equal values may be shown once. Screen size: about 370,000 compounds; about 150 (0.041%) were called active. The shares of active, inactive and inconclusive entries below differ from those in the screen. The call rests on the fitted dose curve; in most records, active means well fitted inhibition curve with a large enough effect; inconclusive means small, poorly fitted or top-dose-only effect; inactive means flat fitted curve, though single readings scatter. A potency beside an inconclusive call is a rough fit, not a confirmed value.
# Molecular target: Beta-lactamase (Escherichia coli (strain K12)) (UniProt P00811)
# Chain of UniProt P00811 (P00811 whole entry, looked up): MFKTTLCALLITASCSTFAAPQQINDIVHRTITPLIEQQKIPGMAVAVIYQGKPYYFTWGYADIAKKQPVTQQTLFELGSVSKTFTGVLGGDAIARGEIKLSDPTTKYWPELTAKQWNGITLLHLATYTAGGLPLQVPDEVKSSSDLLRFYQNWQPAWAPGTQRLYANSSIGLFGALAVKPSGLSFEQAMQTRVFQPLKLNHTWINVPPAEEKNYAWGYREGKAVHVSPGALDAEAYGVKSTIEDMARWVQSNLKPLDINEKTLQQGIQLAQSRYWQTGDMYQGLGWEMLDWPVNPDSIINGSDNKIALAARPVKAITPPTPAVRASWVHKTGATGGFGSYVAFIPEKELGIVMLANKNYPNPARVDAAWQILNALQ
# Assay: qHTS Inhibitors of AmpC Beta-Lactamase (assay with detergent); further: nearly all actives have a fitted effect of over 25% in size;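 on activity change, negative = inhibition: 0% = no-compound wells and -100% = no-enzyme wells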
# Details: AmpC hydrolysis of nitrocefin, absorbance 480 nm, 0.01% Triton; activity change, negative = inhibition: at 114 µM (top of the series)
# Outline: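 AmpC (5.3 nM in the dispensed reagent) in 20 mM phosphate pH 7.0 with 0.01% (detergent screen) or 0.0001% Triton X-100 was preincubated with compounds for 15 min at room temperature. Nitrocefin was then added from an 800 uM solution, and hydrolysis was followed at 480 nm.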
# Potency means the concentration at half of the fitted maximal effect; tags describe the fitted curve by direction and shape.
SMILES,"activity change, negative = inhibition",Potency
CC1CN=C(Nc2cccc3ccccc23)S1 (centres undefined),inactive: -6.56%,
O=[N+]([O-])c1ccc(-c2cn(-c3ccccc3)c(=S)[nH]2)cc1,,"inconclusive: 8.91 µM [inhibitor, partial curve]"
Cc1ccc(NS(=O)(=O)c2ccccc2)c2c1CC(C)(C)O2,inactive: 0.279%,
O=C(Nc1ccc(Cl)cc1)c1ccc2ncsc2c1,,"inconclusive: 39.8 µM [inhibitor, single point]"
CCN(CC(=O)NC1CCS(=O)(=O)C1)C(=O)/C=C/c1cccs1 (centres undefined),,"inconclusive: 11.2 µM [inhibitor, full curve, poor fit]"
COc1ccc(CC(=O)Nc2c(C(=O)N3CCN(c4ccccc4F)CC3)oc3ccccc23)cc1OC,inactive: 15.6%,
CCCC(c1nnnn1Cc1ccc(OC)cc1)N1CCN(c2ccccc2)CC1 (centres undefined),,"inconclusive: 0.631 µM [inhibitor, full curve, poor fit]"
COc1cc(C(=O)N2CCN(S(=O)(=O)c3ccc(C)cc3)CC2)ccc1OCc1c(C)noc1C,,"inconclusive: 44.7 µM [inhibitor, partial curve]"
O=C(NCCC(=O)N1CCN(c2ccc(F)cc2)CC1)c1ccco1,,"inconclusive: 0.562 µM [inhibitor, full curve, poor fit]"
COc1cc(=O)[nH]c(=O)n1CC(=O)c1ccccc1,,"inconclusive: 15.8 µM [inhibitor, partial curve]"
Cc1ccc(O)c(NC2=C(Cl)C(=O)N(Cc3ccccc3)C2=O)c1,inactive: 5.54%,
Cc1cc(OCC(=O)c2ccc(C(F)(F)F)cc2)n2cnnc2n1,,"inconclusive: 2 µM [inhibitor, full curve, poor fit]"
COc1ccc(OC)c(/C=N/N=C2\SCC(=O)N2Cc2ccco2)c1,,"inconclusive: 1 µM [inhibitor, full curve]"
O=C(COC(=O)c1cc[n+]([O-])cc1)Nc1ccc([N+](=O)[O-])cc1,,"inconclusive: 2.51 µM [inhibitor, full curve, poor fit]"
COc1ccc(-n2nnnc2C2CCN(S(=O)(=O)c3cc(Cl)ccc3OC)CC2)cc1,inactive: 14.8%,
COc1cc(NC(=O)c2c(C)nn(-c3ccc(F)cc3)c2-n2cccc2)cc(OC)c1,inactive: 1.82%,
O=C1CCc2cc(S(=O)(=O)N3CCC(C(=O)NCc4ccccn4)CC3)ccc2N1,,"inconclusive: 0.708 µM [inhibitor, full curve, poor fit]"
C=CCN(CC=C)C(=S)NC(=O)c1ccc(-c2ccccc2)cc1,inactive: -5.5%,
CC(=O)OCCCn1c(C)[n+](C)c2cc(Cl)c(Cl)cc21,inactive: -2.92%,
COc1ccc(Cn2nnnc2CN2CCc3ccccc3C2)cc1,,"inconclusive: 89.1 µM [inhibitor, partial curve]"
O=[N+]([O-])c1cccc(CN2C[C@@]34C=C[C@@H](C[C@@H]3S2(=O)=O)O4)c1,,"inconclusive: 3.16 µM [inhibitor, full curve, poor fit]"
O=C(O)C1CCCN1C(=O)Nc1ccc(Cl)cc1 (centres undefined),,"inconclusive: 0.631 µM [inhibitor, full curve, poor fit]"
CC(C)CNC(=O)NC(=O)CSc1nc2ccccc2n1CC(C)C,,"inconclusive: 31.6 µM [inhibitor, single point]"

SMILES,"activity change, negative = inhibition",Potency
CCOc1ccc(S(=O)(=O)NCCSc2ccccc2)cc1,,"inconclusive: 0.631 µM [inhibitor, full curve, poor fit]"
CCCCN1C(=O)C(NC(=O)c2ccc(C(C)(C)C)cc2)(C(F)(F)F)C(C(=O)OC)=C1C (centres undefined),inactive: -0.284%,
COc1cccc(Nc2nc(-c3cccs3)nc3ccccc23)c1,,"inconclusive: 5.01 µM [inhibitor, full curve, poor fit]"
COc1ccccc1/C=C/CN1CCC(Oc2ccc(C(=O)N3CCCCC3)cc2)CC1,,"inconclusive: 0.891 µM [inhibitor, full curve]"
Cc1cccc(COCC(Cc2ccccc2)N2CCN(C(=O)c3cccc(C)c3)CCC2=O)c1 (centres undefined),inactive: -7.72%,
O=C(NCc1cccnc1)C(C(=O)c1ccc(F)cc1)n1ccccc1=O (centres undefined),,"inconclusive: 0.708 µM [inhibitor, full curve]"
NC(=O)C1CCN(C(=O)C2c3ccccc3C(=O)N3CCc4ccccc4C23)CC1 (centres undefined),inactive: 3.97%,
CC(=C1C(=O)c2ccccc2C1=O)N1CCN(c2ccc(F)cc2)CC1,inactive: 6.7%,
O=C1c2ccccc2C(=O)N1c1nc(-c2cccs2)cs1,inactive: -5.05%,
N#Cc1ccc(C(=O)OCC(=O)N2CCCCCC2)cc1,,"inconclusive: 44.7 µM [inhibitor, partial curve, poor fit]"
Cc1ccc(CNc2nc(Cl)c(C#N)s2)cc1,inactive: -0.344%,
O=C(O)C1C2C=CC(C2)C1C(=O)NCc1ccc(Cl)c(Cl)c1 (centres undefined),,"inconclusive: 4.47 µM [inhibitor, full curve, poor fit]"
C/C(=C\C(=O)OCC(=O)NCc1ccccc1)C(=O)OCC(=O)NCc1ccccc1,,"inconclusive: 100 µM [inhibitor, partial curve, poor fit]"
CC(C)(C)OC(=O)N1CCC(c2c(C(=O)NCCN3CCOCC3)cnn2-c2cccc(F)c2)CC1,inactive: -1.2%,
CC(OC(=O)C1=COCCO1)C(=O)Nc1ccccc1C#N (centres undefined),,"inconclusive: 3.55 µM [inhibitor, full curve]"
COc1ccc(C2(CNC(=O)C(=O)Nc3ccc(C)c(Cl)c3)CCCC2)cc1OC,inactive: 0.0696%,
C/C(=N\NC(=O)c1cc(-c2cccc([N+](=O)[O-])c2)n[nH]1)c1ccc(F)cc1,,"inconclusive: 100 µM [inhibitor, partial curve]"
Clc1ccccc1-c1nc(-c2ccncc2)no1,,"inactive and inconclusive: 100 µM [inhibitor, single point]"
CC(C)Cn1c(N)c(C(=O)COC(=O)c2cccc(F)c2)c(=O)n(C)c1=O,,"inconclusive: 17.8 µM [inhibitor, full curve, poor fit]"
COc1ccc(OC)c(CN2CCN(C(=O)c3cccs3)CC2)c1,,"inconclusive: 0.631 µM [inhibitor, full curve, poor fit]"
Clc1ccc(-c2ccc(CNCCSc3nnnn3-c3ccccc3)o2)cc1,inactive: 32.8%,
Cc1cc(C(=O)NCc2ccco2)on1,,"inconclusive: 0.631 µM [inhibitor, full curve, poor fit]"
O=C(NCc1ccccn1)C1CCN(C(=O)c2cc3sccc3n2Cc2ccc(F)cc2)CC1,,"inconclusive: 31.6 µM [inhibitor, single point]"

SMILES,"activity change, negative = inhibition",Potency
CCOC(=O)c1c(C)nc2sc3c(c2c1-c1ccc(OC)cc1)NC(c1ccc(OC)cc1)NC3=O (centres undefined),,"inconclusive: 0.316 µM [inhibitor, full curve, poor fit]"
CCCCCN1C(C(=O)c2ccccc2)=C(NC(=O)c2ccc(OC)c(OC)c2)c2ccccc2S1(=O)=O,inactive: 35.2%,
O=C(CSc1ccc2nnc(-c3ccc(F)cc3)n2n1)N1CCCc2ccccc21,,"inconclusive: 39.8 µM [inhibitor, full curve]"
CSc1ccccc1C(=O)Nc1cccc(N(C)S(C)(=O)=O)c1,,"inconclusive: 0.631 µM [inhibitor, full curve, poor fit]"
O=C1CN(C(=O)COC(=O)c2ccccc2O)c2ccccc2N1,inactive: -3%,
CC(NC(=O)COC(=O)CCNC(=O)c1ccco1)C12CC3CC(CC(C3)C1)C2 (centres undefined),,"inconclusive: 39.8 µM [inhibitor, full curve, poor fit]"
COC(=O)C1C(=O)/C(=C/N(C)C)C(=O)CC1(C)C (centres undefined),,"inconclusive: 89.1 µM [inhibitor, partial curve]"
NC(=O)C1CC(O)CN1c1nc(CN2CCOCC2)nc2scc(-c3ccccc3)c12 (centres undefined),,"inconclusive: 0.708 µM [inhibitor, full curve, poor fit]"
O=C(CCNC(=O)c1ccccc1Cl)Nc1cccc(S(=O)(=O)N2CCCC2)c1,,"inconclusive: 5.01 µM [inhibitor, full curve, poor fit]"
Cc1ccc(CCNC(=O)c2sc3nc4n(c(=O)c3c2C)CCC4)cc1,,"inconclusive: 22.4 µM [inhibitor, full curve, poor fit]"
CC(C)CNC(=O)c1noc2c1CCCC2,,"inconclusive: 3.55 µM [inhibitor, full curve, poor fit]"
O=C(NN1c2ccccc2CCc2ccccc21)c1ccccc1Br,,"inconclusive: 100 µM [inhibitor, single point]"
Cc1cccc(C)c1NC(=O)COC(=O)c1ccc([N+](=O)[O-])o1,inactive: 2.37%,
O=C(Nc1ccc(N2CCOCC2)cc1N1CCOCC1)c1ccc([N+](=O)[O-])cc1,,"inconclusive: 44.7 µM [inhibitor, single point]"
O=C(c1ccc(Cn2ccc([N+](=O)[O-])n2)cc1)N1CCN(Cc2ccccc2)CC1,inactive: -6.27%,
O=C(CN1CCCCC1)N/N=C/c1ccccc1OCc1ccccc1,,"inconclusive: 3.98 µM [inhibitor, full curve]"
COc1ccccc1NC(=O)C(C)NS(=O)(=O)c1ccccc1 (centres undefined),,"inconclusive: 35.5 µM [inhibitor, full curve]"
COc1cc(C(C[N+](=O)[O-])c2c(-c3ccccc3)cc3ccccn23)cc(OC)c1OC (centres undefined),inactive: -3.19%,
O=C(COC(=O)c1nc(Cl)ccc1Cl)NCc1cccs1,inactive: -17.7%,
COc1ccc(C(=O)Nc2ccc(C(=O)Nc3cccc(C)c3)cc2)cc1,inactive: -6.29%,
Cc1cc(C)cc(NC(=O)C2CCN(S(C)(=O)=O)CC2)c1,inactive: -12.8%,
O=C(O)c1ccc2c(=O)n3cc(C(=O)c4ccccc4O)cc(Cl)c3nc2c1,,"inconclusive: 39.8 µM [inhibitor, partial curve]"
COC(=O)Cc1c(C)c2ccc(OC(=O)c3ccccc3)cc2oc1=O,,"inconclusive: 3.98 µM [inhibitor, partial curve, poor fit]"

# Source: PubChem BioAssay AID485294 (National Center for Advancing Translational Sciences (NCATS), 2010)
